# Data taken from PMC4336329 (PLoS ONE, 2015).
# Hit rate of the full screen: of about 310,000 compounds, about 2,200 (0.71%) showed an effect of 50% or more. The effect is printed as a negative number. Some of the results follow.
# Target: human ether-à-go-go-related gene (hERG) potassium channel (human, UniProt Q12809)
# Assay: primary screen, population patch clamp on CHO cells stably expressing hERG
# Chain of human ether-à-go-go-related gene (hERG) potassium channel (Q12809 whole entry, looked up): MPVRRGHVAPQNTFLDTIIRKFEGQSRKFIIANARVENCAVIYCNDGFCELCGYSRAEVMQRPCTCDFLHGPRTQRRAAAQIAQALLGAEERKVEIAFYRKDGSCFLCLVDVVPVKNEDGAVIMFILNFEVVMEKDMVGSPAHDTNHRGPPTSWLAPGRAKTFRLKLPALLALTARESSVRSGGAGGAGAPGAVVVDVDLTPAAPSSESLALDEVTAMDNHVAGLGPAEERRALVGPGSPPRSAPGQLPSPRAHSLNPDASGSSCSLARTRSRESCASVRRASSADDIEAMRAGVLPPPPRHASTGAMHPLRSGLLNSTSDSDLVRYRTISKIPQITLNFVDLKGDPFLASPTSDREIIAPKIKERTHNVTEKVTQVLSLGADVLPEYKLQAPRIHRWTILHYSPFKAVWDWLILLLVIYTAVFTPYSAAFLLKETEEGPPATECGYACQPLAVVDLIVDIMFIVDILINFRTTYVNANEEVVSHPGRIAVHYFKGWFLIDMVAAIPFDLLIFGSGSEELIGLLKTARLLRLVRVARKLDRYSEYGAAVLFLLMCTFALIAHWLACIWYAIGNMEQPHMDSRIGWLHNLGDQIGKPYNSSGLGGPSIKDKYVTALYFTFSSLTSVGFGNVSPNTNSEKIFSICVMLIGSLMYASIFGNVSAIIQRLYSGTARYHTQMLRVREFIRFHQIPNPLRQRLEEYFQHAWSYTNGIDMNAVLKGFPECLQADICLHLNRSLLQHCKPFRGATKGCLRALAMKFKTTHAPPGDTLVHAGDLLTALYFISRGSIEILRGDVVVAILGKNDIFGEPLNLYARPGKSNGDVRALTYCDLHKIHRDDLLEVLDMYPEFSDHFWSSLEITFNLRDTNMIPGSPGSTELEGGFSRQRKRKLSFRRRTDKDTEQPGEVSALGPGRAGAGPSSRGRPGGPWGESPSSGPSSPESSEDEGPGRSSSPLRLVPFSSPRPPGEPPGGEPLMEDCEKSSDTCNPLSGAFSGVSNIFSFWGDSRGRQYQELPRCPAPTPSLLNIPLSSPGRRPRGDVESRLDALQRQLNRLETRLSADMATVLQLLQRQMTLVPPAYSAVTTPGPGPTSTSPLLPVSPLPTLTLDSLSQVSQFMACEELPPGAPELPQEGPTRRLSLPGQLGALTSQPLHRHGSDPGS
row,Compound,"hERG current change (%, negative = inhibition) at 1uM [%]"
1,NS(=O)(=O)c1ccc(CCNC(=O)Cc2ccc(S(=O)(=O)N3CCCC3)s2)cc1,14.9
2,O=C(NC1CCCCC1)C1CCCN1C(=O)Nc1ccccc1 (centres unmarked),16.1
3,O=C(c1cc(COc2ccc(F)cc2Cl)on1)N1CCCCCCC1,8.65
4,CC(=O)C(C(C)=O)C(NC(=O)c1cccnc1)(C(F)(F)F)C(F)(F)F,1.23
5,CCCOC(=O)c1ccc(NC(=O)c2nc3nc(C)cc(C)n3n2)cc1,5.72
6,O=C(/C=C/c1cccc([N+](=O)[O-])c1)N1CCN(Cc2ccccc2)CC1,-20.3
7,CC1CCC2(CC1)NC(=O)N(CC(=O)c1cccn1C)C2=O (centres unmarked),13.9
8,O=C(O)Cn1nnc(COc2ccccc2)n1,12.4
9,O=C(OCC1OC(n2cc(Br)c(=O)[nH]c2=O)C(Br)C1O)c1ccccc1 (centres unmarked),11.7
10,O=C(/C=C/c1ccc(N2CCCCC2)c([N+](=O)[O-])c1)c1ccc(S(=O)(=O)N2CCCC2)cc1,10.8
11,COCCn1cnnc1SCC(=O)Nc1sccc1C(N)=O,8.53
12,Cc1ccc(S(=O)(=O)Oc2ccc(/C=C3/N=C(c4ccccc4)OC3=O)cc2)cc1,0.168
13,NS(=O)(=O)c1ccc(CCNC(=O)c2cc([N+](=O)[O-])ccc2N2CCOCC2)cc1,-6.06
14,CCN(CC)C(=O)CC(c1cc(OC)c(OC)c(OC)c1)c1c(OC)cc(OC)c2ccc(=O)oc12 (centres unmarked),5.07
15,Cc1cc([N+](=O)[O-])nn1CCCC(=O)Nc1cccc(Cl)c1Cl,2.92
16,COC(=O)C1CCN(S(=O)(=O)CCNC(=O)c2ccc3c(c2)OCO3)CC1,12.8
17,CC(C)(C)c1ccc(-c2nnc(N)s2)cc1,2.16
18,Cc1ccc(NC(=O)Cn2c(=O)n(Cc3ccco3)c(=O)c3ccccc32)c(C)c1,3.37
19,Cn1cnnc1SCC(=O)Nc1ccc(Cl)c(S(=O)(=O)N2CCOCC2)c1,11.8
20,Cc1ccccc1-c1nc(SCc2cccnc2)c2c(=O)n(C)c(=O)n(C)c2n1,15
21,COc1cc(C(=O)OCC(=O)N2CC(C)OC(C)C2)cc(OC)c1OC (centres unmarked),23.2
22,COc1ccc(OC)c(NC(=O)N[C@@H](Cc2ccccc2)C(=O)O)c1,4.68

row,Compound,"hERG current change (%, negative = inhibition) at 1uM [%]"
1,CCC(=O)c1cc(F)c(N2CCN(S(=O)(=O)c3ccc(C)cc3)CC2)cc1C,-5.99
2,O=C(CSc1ccccn1)Nc1nc2ccccc2s1,5.51
3,Cc1ccc(CNc2ccccc2C(=O)O)s1,15.7
4,CCCCC(=O)Nc1ccc(NC(=O)c2cnccn2)cn1,18.4
5,CCCN(C(=O)COC(=O)CCOc1ccccc1)c1c(N)n(Cc2ccccc2)c(=O)[nH]c1=O,2.16
6,Cc1ccccc1CSc1nc(-c2ccccc2)cc(=O)[nH]1,6.64
7,Cc1ccc(N(CC(=O)N2CCOCC2)S(=O)(=O)c2ccccc2)cc1,11.1
8,CC(C)CC(c1nnnn1CC1CCCO1)N1CCN(c2cccc(Cl)c2)CC1 (centres unmarked),2.5
9,CCOC(=O)C1=C(C)NC2=C(C(=O)c3ccccc32)C1c1ccc(O)cc1 (centres unmarked),11.2
10,O=C(COC(=O)CCC(=O)c1cccs1)Nc1cc(S(=O)(=O)N2CCOCC2)ccc1Cl,-12.4
11,COc1cc(/C=C/C(=O)c2ccc(Cl)s2)cc(OC)c1O,-4.35
12,O=C(NNc1ccccn1)C(=O)NNS(=O)(=O)c1ccc(F)cc1,6.06
13,O=C(COc1ccccc1)NC1CCS(=O)(=O)C1 (centres unmarked),9.8
14,O=C1OC(c2ccccc2)c2ccccc21 (centres unmarked),9.85
15,O=C(O)Cn1c(CC(=O)N2CCCC2)nc2ccccc21,13.5
16,COc1ccc(CCNC(=O)CN(c2ccccc2)S(C)(=O)=O)cc1OC,0.694
17,O=C(O)COc1ccc(-c2nnn(Cc3ccccc3F)n2)cc1,14.4
18,COc1cc(/C=C(\C#N)C(=O)Nc2ccccc2C(=O)O)cc(Cl)c1OC,14.6
19,CCOC(=O)CN1C(=O)COc2ccc(C(C)(C)C)cc21,-9.54
20,O=C1c2cccc([N+](=O)[O-])c2C(=O)N1C1CCCCC1,14.9
21,Cc1ccc2oc(-c3cc(NC(=O)c4ncn[nH]4)ccc3O)nc2c1,16.9
22,Cc1cc(C(=O)CSc2nnc(-c3ccncc3)n2-c2ccccc2)c(C)n1C,-8.42
